# Test results as given in PubChem BioAssay AID504832 (National Center for Advancing Translational Sciences (NCATS), 2011).
# The campaign covered roughly 310,000 compounds. About 18,000 (5.8%) were called active. This list was built around the results that the source calls inconclusive (neither active nor inactive); the mix of calls is not that of the screen. Calls follow the shape of the dose curve; as a rule, active = well fitted inhibition curve with a large enough effect; inconclusive = small, poorly fitted or top-dose-only effect, or another doubt; inactive = no such curve, though single readings can be large or run the other way. No potency is given beside an inconclusive call; the fits are too rough.
# Test: Primary qHTS for delayed death inhibitors of the malarial parasite plastid, 48 hour incubation
# Conditions: P. falciparum luciferase growth in erythrocytes; series mostly up to 28.7 µM; activity change, negative = inhibition: at the top concentration
# Method in brief: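 In quantitative HTS format, infected erythrocytes bearing luciferase-reporter parasites were treated for a single generation at 37 C. Luminescence after adding detection reagent served as the growth measure.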
# % is scaled to controls: 0 for no effect and ±100 for the full control effect; potency is read from the fitted curve at half-maximal effect; tags tell the direction and shape of the fitted curve.
SMILES,Potency,"activity change, negative = inhibition"
COc1ccc(S(=O)(=O)N2CCCCCC2)cc1C(=O)N1CCCCC1,"inconclusive [inhibitor, single point]",
CCOC(=O)/C=C/CN(C(=O)OC(C)(C)C)S(=O)(=O)N1CC=CC1,"inconclusive [inhibitor, partial curve, poor fit]",
CCOC(=O)C1=C(c2ccccc2)ON(C)C1c1ccccc1 (configuration not stated),,inactive: -1.92%
CCNC(=S)Nc1ccc(N(c2ccccc2)C(C)C)cc1,,inactive: -0.155%
O=C(c1c[nH]c(C(=O)N2CCN(Cc3ccccc3)CC2)c1)C1CCCCC1,"inconclusive [inhibitor, single point]",
Cc1ccc2nc3c(c(Nc4ccccc4)c2c1)CCC3,"inconclusive [inhibitor, single point]",
CCN1CCN(C(=S)NC(=O)c2cccs2)CC1,"inconclusive [inhibitor, single point]",
COc1cccc(NC(=O)CN(C)C(=O)C2CCN(C(=O)c3ccccc3C)CC2)c1,,inactive: 2.75%
COc1ccc(C(=O)/C=C/C(=O)N(CC(=O)NC2CCCCC2)Cc2ccc(F)cc2)c(O)c1,active: 9.28 µM,
CN(C)C(CNC(=O)c1ccc(S(=O)(=O)Nc2ccccc2F)cc1)c1ccccc1 (configuration not stated),,inactive: 50.7%
COc1ccc(C(=O)NC2CCCc3c2cnn3-c2cccc(C)c2C)o1 (configuration not stated),"inconclusive [inhibitor, single point]",
S=C(NCc1ccco1)Nc1ccc(Oc2ccc(Cl)cc2)cc1,"inconclusive [inhibitor, partial curve, poor fit]",
NC(=O)c1cnn2c(C(F)(F)F)cc(-c3ccc(F)cc3)nc12,"inconclusive [inhibitor, single point]",
COc1ccc(C(=O)C[n+]2cc(Br)cc3ccccc32)cc1[N+](=O)[O-],"inconclusive [inhibitor, partial curve]",
O=C(Nc1cc(Cl)ccc1-n1cncn1)c1ccc(Br)o1,"inconclusive [inhibitor, single point]",
O=C(CN1C(=O)NC(c2ccccc2)(c2ccccc2)C1=O)NC1CCS(=O)(=O)C1 (configuration not stated),,inactive: 11.7%
Fc1ccccc1-c1nc(NCCCN2CCOCC2)c2ccccc2n1,"inconclusive [inhibitor, partial curve, poor fit]",
Cc1nn(-c2ccccc2)c(C)c1NC(=O)COc1ccc(F)cc1Cl,"inconclusive [inhibitor, partial curve, poor fit]",
CC(C)N(Cc1ccccc1)C(=S)Nc1cccnc1,"inconclusive [inhibitor, single point]",
Cc1nnc2n(Cc3ccccc3)c(=O)c3c4c(sc3n12)CN(Cc1ccccc1)CC4,"inconclusive [inhibitor, single point]",
COc1cc(NC(=O)c2ccc(F)cc2)c(OC)cc1Cl,,inactive: 28.2%
CCc1ccc(/C=N/n2c(C3CCCCC3)n[nH]c2=S)cc1,"inconclusive [inhibitor, partial curve, poor fit]",
COc1ccc(C2CC(c3ccc(Br)cc3)=NN2C(=O)CSC2=NCCS2)cc1 (configuration not stated),"inconclusive [inhibitor, single point]",
Cc1cc(Cl)ccc1OCC(=O)N1CCN(c2ncccn2)CC1,"inconclusive [inhibitor, full curve, poor fit]",

SMILES,Potency,"activity change, negative = inhibition"
Fc1cccc(F)c1/C=N/N1CCOCC1,,inactive: 16.1%
NS(=O)(=O)c1ccc(NC(=O)COc2ccc(S(=O)(=O)N3CCCC3)cc2)cc1,,inactive: -14.6%
Cc1ccc(NC(=O)C2CC2C)cc1S(=O)(=O)N1CCOCC1 (configuration not stated),"inconclusive [inhibitor, single point]",
COc1ccc(-n2c(C)nc3c(cnn3-c3ccc(Cl)cc3)c2=O)cc1,,inactive: -13.4%
CCN1CCCC1Cn1cnc2c([nH]c3ccc(OC)cc32)c1=O (configuration not stated),,inactive: 19.7%
c1ccc(-c2ncc3ccccn23)cc1,"inconclusive [inhibitor, partial curve, poor fit]",
N/C(CC(=O)Nc1ccc(F)c(Cl)c1)=N\OC(=O)c1cccs1,"inconclusive [inhibitor, partial curve, poor fit]",
CCOc1ccc(CCNC(=O)CN(C)S(=O)(=O)c2cccs2)cc1OCC,"inconclusive [inhibitor, partial curve, poor fit]",
O=C(COC(=O)c1c(F)cccc1F)c1ccc[nH]1,"inconclusive [inhibitor, partial curve, poor fit]",
CCOc1nc(C)ccc1-c1noc(-c2ccccc2OC)n1,,inactive: 79.5%
Cc1ccc2c(c1)C1CN(C)CCC1N2C(=O)c1ccccc1NS(=O)(=O)c1ccc(F)cc1 (configuration not stated),"inconclusive [inhibitor, partial curve, poor fit]",
O=C(/C=C/c1ccc(-c2ccccc2)o1)c1ccccc1,,inactive: 145%
Nc1nnn(CC(=O)N/N=C/c2ccc(Cl)cc2Cl)n1,,inactive: 51.7%
Cc1noc(C(=O)Nc2cccc(Cl)c2)c1Cl,,inactive: 109%
COc1ccccc1-n1cnnc1SC(C)C(=O)NCC1CCCO1 (configuration not stated),,inactive: 5.02%
Cc1c(Cl)c([N+](=O)[O-])nn1Cc1ccc(C(=O)N/N=C\c2cc(Cl)ccc2O)o1,"inconclusive [inhibitor, full curve]",
O=C(c1ccc([N+](=O)[O-])cc1[N+](=O)[O-])N1CCCC1,,inactive: -29%
O=C(Nc1ccc(S(=O)(=O)NCC2CCCO2)cc1)c1cnccn1 (configuration not stated),"inconclusive [inhibitor, partial curve]",
CCC1C(=O)NCCN1C(=O)c1cc(COc2cc(C)ccc2C)on1 (configuration not stated),"inconclusive [inhibitor, full curve, poor fit]",
COc1ccc(Cl)c2sc(N3CCN(C(=O)c4ccco4)CC3)nc12,"inconclusive [inhibitor, single point]",
Cc1ccc(S(=O)(=O)N2CCOCC2)cc1NC(=O)CNC1CCCC1,,inactive: 20.1%
O=C(Nc1cc(C(F)(F)F)ccc1N1CCCCC1)c1cccc([N+](=O)[O-])c1,active: 14.7 µM,
CC(C)CN(C)C(=O)CCc1nnc(Cc2ccc(-c3ccccc3)cc2)o1,"inconclusive [inhibitor, full curve, poor fit]",
Cc1cc(C(=O)COc2ccc(-c3nnco3)cc2)c(C)n1Cc1ccccc1,"inconclusive [inhibitor, partial curve]",

SMILES,Potency,"activity change, negative = inhibition"
COc1ccc(NC(=O)CC2C(=O)N(Cc3ccccc3)C(=S)N2CCN2CCOCC2)cc1 (configuration not stated),"inconclusive [inhibitor, partial curve, poor fit]",
COCCNC(=O)C(C#N)c1nc2ccccc2nc1N1CCCCCC1 (configuration not stated),"inconclusive [inhibitor, single point]",
COc1ccc(NC(=O)CSc2nnc3n2CCCCC3)cc1S(=O)(=O)N1CCOCC1,,inactive: -15.4%
O=S(=O)(Nc1cccc(-n2cnnn2)c1)c1cnc(Cl)c(Cl)c1,,inactive: -12.1%
CN(C)/C=N/NC(=O)C1Cc2c(ccc3ccccc23)O1 (configuration not stated),"inconclusive [inhibitor, single point]",
COc1ccc2sc(-c3ccc(N(C)C)cc3)c(-c3cnc(OC)nc3)c2c1,"inconclusive [inhibitor, single point]",
Cc1ccc(-n2cnc3scc(-c4cccs4)c3c2=O)cc1,"inconclusive [inhibitor, single point]",
O=C(c1cnn2c(C(F)(F)F)cc(-c3ccc4c(c3)OCO4)nc12)N1CCCCC1,,inactive: -0.293%
NNC(=O)COc1ccc(C2SCCS2)cc1,"inconclusive [inhibitor, single point]",
CCc1ccccc1NC(=O)CSc1nc2n[nH]c(C)c2c(=N)n1-c1ccc(OC)cc1,"inconclusive [inhibitor, single point]",
O=C(NCc1ccccc1Cl)C1CCN(C(=O)c2ccco2)CC1,,inactive: 6.45%
COc1ccc2c(CN3CCN(S(=O)(=O)c4cccs4)CC3)cc(=O)oc2c1,"inconclusive [inhibitor, partial curve]",
COc1ccc(NS(=O)(=O)c2ccc(NS(=O)(=O)c3cccs3)cc2)cc1,,inactive: 10.1%
O=c1c2ccccc2c(-c2ccc(O)cc2)nn1-c1cccc(C(F)(F)F)c1,active: 9.28 µM,
Fc1ccc(C2CC(c3ccco3)=NN2c2ccccc2)cc1 (configuration not stated),"inconclusive [inhibitor, single point]",
CC(=O)c1cc(F)c(N2CCN(C(=O)c3ccco3)CC2)cc1C,,inactive: 0%
Cc1ccc(C2CC2c2n[nH]c(=S)n2-c2cccc(Cl)c2)cc1 (configuration not stated),,inactive: 5.84%
Cc1nc(-c2ccc(S(=O)(=O)NCC3CCN(C(=O)OC(C)(C)C)CC3)s2)cs1,"inconclusive [inhibitor, partial curve]",
COc1ccc(-c2csc3ncnc(Nc4ccc(O)cc4)c23)cc1,"inconclusive [inhibitor, single point]",
O=C(CN1C(=O)NC2(CCCCC2)C1=O)N(Cc1ccco1)Cc1cccs1,"inconclusive [inhibitor, single point]",
c1ccc(OCCN2CCN(C(c3ccccc3)c3ccccc3)CC2)cc1,"inconclusive [inhibitor, single point]",
COc1cccc(NC(=O)CN(C)C(=O)c2cccnc2Nc2cccc(C(F)(F)F)c2)c1,active: 9.28 µM,
Cc1nc(CCl)cc(=O)[nH]1,active: 5.22 µM,
COC(=O)c1onc(-c2c(Cl)cccc2Cl)c1C(=O)OC,"inconclusive [inhibitor, single point]",
